# The whole screen tested about 2,200 compounds, of which fewer than 10 were called active. This is one part of the list. The source made no clear call on entries shown without one.
# Target: GTPase KRas (Homo sapiens) (UniProt P01116)
# Assay: Fragment capture on engineered cysteines, share of protein labelled (AID 2202238)
# Design: protein at 5 µM with 500 µM competing thiol for 1.5 h
# Conditions: KRAS G12D cysteine mutants, disulfide tethering, MALDI-TOF labeling; stronger effect = higher value; H27C mutant labeling; fragment at 500 µM
# UniProt P01116, sequence (P01116 whole entry, looked up, the tested form may be a part): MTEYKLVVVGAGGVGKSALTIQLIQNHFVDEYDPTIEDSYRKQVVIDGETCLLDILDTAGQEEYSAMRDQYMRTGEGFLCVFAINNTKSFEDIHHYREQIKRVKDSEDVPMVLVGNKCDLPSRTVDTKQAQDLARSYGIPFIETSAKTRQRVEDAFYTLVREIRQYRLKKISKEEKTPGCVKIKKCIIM
row,SMILES,percent labeling [%]
1,O=C(NCCS)C1(c2cccs2)CCCCC1,23.3
2,CC(C)(C)c1noc2ncc(C(=O)NCCS)cc12,35.6
3,O=C(CCS)NCCC1CN(c2ncnc3[nH]ncc23)c2ccccc21 (stereo not given),31.3
4,COc1ccc2[nH]c(C(=O)NCCS)cc2c1OC,27.9
5,O=C(NCCS)c1cc(C2CC2)nc2onc(-c3ccccc3)c12,16.5
6,COc1ccc(Br)cc1-c1nc(C(=O)NCCS)cs1,39.4
7,CC(C)(C(=O)NCCS)c1ccc(Cl)c(Cl)c1,25.7
8,Cc1nc2sccn2c1C(=O)NCCS,45.4
9,Cc1cc(CC(C)(C)C(=O)NCCS)ccc1Br,16.4
10,CC1CCN(c2cc(C(=O)NCCS)ccn2)C1 (stereo not given),35.5
11,Cc1ncc(Cc2cccc(C(=O)NCCS)c2)s1,48.7
12,O=C(NCCS)C1COc2ccc(O)cc2O1 (stereo not given),40
13,O=C(CC1(N2CCOCC2)CCCC1)NCCS,19.9
14,O=C(CCS)Nc1ccc2nc(C(F)F)[nH]c2c1,37.6
15,Cn1ccnc1[C@@H]1OCCC[C@H]1C(=O)NCCS,20.7
16,O=C(NCCS)C1(C(F)(F)F)CCOCC1,38.3
17,CO[C@H]1CCN(Cc2nc(C(=O)NCCS)co2)C1,32.7
18,Cc1sc(NC(=O)CCS)nc1-c1ccc2c(c1)CCC(=O)N2,28.7
19,Cc1nnc(CN(C)CC(=O)NCCS)n1C,15.1
20,O=C(CCS)NCc1nc(-c2nn[nH]n2)cs1,24.5
21,O=C(CCS)Nc1cnc2c(c1)COCC2,36.6
22,CC(C)Cn1ccc2c(C(=O)NCCS)cccc21,25.7
23,Cc1c(-c2ccc(Cl)cc2)n[nH]c1C(=O)NCCS,16.5
24,O=C(CCS)NCCn1cc(Br)ccc1=O,39.8

row,SMILES,percent labeling [%]
1,CCOC(=O)C(NC(=O)CCS)c1c(C)nn(Cc2ccccc2)c1C (stereo not given),24.4
2,O=C(CCS)NCC(=O)Nc1nccs1,33.2
3,CC(O)(Cn1ccc2sccc2c1=O)C(=O)NCCS (stereo not given),41
4,CC1(C)CCC(C(=O)NCCS)C(c2ccccc2)C1 (stereo not given),26.3
5,O=C(NCCS)[C@@H]1OCCO[C@@H]1c1ccccc1,27.4
6,Cc1ccc2ncc(NC(=O)CCS)cc2c1,29
7,O=C(CCS)NCC1(c2cccc(C(F)(F)F)c2)CCC1,32.3
8,O=C(CC1CCN(CC(F)F)CC1)NCCS,28.2
9,O=C(CCS)Nc1ccc(C(=O)O)cc1O,21.2
10,Cc1cc2ncn(CC(O)CNC(=O)CCS)c2cc1C (stereo not given),42.3
11,CN1Cc2cc(C(=O)NCCS)ccc2NC1=O,31
12,Cc1nc(Cl)ccc1CNC(=O)CCS,42.3
13,O=C(CCS)Nc1nnc(CC2CCCC2)s1,24.5
14,O=C(CCS)Nc1cccc2c1CN(c1ccccn1)C2,19.5
15,Cc1ncsc1C(=O)N1CCCN(C(=O)CCS)CC1,38.8
16,COCCn1nnc2c1CCN(C(=O)CCS)C2,27.9
17,CN1CC(C(=O)NCCS)c2ccccc2C1=O (stereo not given),26
18,NC(=O)C1CCN(c2ncccc2CNC(=O)CCS)CC1,30.7
19,O=C(CN1CCN(C(=O)CCS)CC1)Nc1ccccc1,40
20,COC(=O)c1ccc(CN(C)C(=O)CCS)o1,34
21,O=C(CN1CCC(C(F)(F)F)CC1)NCCS,40.9
22,O=C(NCCS)C1=NN(c2ccc(S(=O)(=O)O)cc2)C(=O)C1,15.4
23,Cc1nc(CN2CCC(CNC(=O)CCS)CC2)cs1,50.5
24,O=C(CCS)NCC(=O)Nc1ccc(F)cc1,26

row,SMILES,percent labeling [%]
1,Cn1ccc(C(=O)NC2(C(=O)NCCS)CCCCCC2)cc1=O,28.4
2,O=C(CCS)Nc1cc2n(n1)CCCN(Cc1ccccc1)C2,38.7
3,COc1ccc(C(=O)Nc2cc(F)ccc2C(=O)NCCS)cc1,24.1
4,Cc1c(C(=O)NCCS)oc2c1ccc1ccccc12,22.5
5,C[C@H]1C[C@H](NC(=O)CCS)c2ccsc2S1(=O)=O,50.2
6,O=C(CCS)N1CCN(Cc2ccncc2)CC1,28.4
7,O=C(NCCS)c1ncccc1-n1ncc2ccccc21,36.6
8,CC(C)Cc1cc(C(=O)NCCS)cc(=O)[nH]1,45.5
9,CN1CCN(C(=O)CCS)c2cc(F)ccc21,28.6
10,Cc1nc(CC(C)C)c(C(=O)NCCS)s1,41.5
11,O=C(CCS)NCc1ccncc1C(F)(F)F,19.3
12,O=C(CCS)N1CCC(Cc2nc(-c3ccc(F)cn3)no2)CC1,36.6
13,O=C(CCS)N1CCc2c([nH]c(=O)[nH]c2=O)C1,41.6
14,COc1ccc(C(=O)NCCS)c(OC)c1OC,41.9
15,CC(=O)N(C)Cc1ccccc1NC(=O)CCS,28.3
16,Cc1nn(Cc2ccccc2)c(C)c1NC(=O)CCS,50.2
17,CN(C)c1cnc(CNC(=O)CCS)cn1,30
18,O=C(CCS)N1CCC(C(O)c2ccc(F)cc2)CC1 (stereo not given),48.3
19,O=C(NCCS)c1ccccc1OC1CCCC1,24.1
20,Cc1nn(C2CCN(C(=O)CCS)CC2)c(=O)[nH]1,35.1
21,O=C(NCCS)c1ccc(NC(=O)C2CC2)s1,48.2
22,O=C(NCCS)c1cc2ccc(Br)cc2c(=O)o1,17.2
23,CC(C)C(NC(=O)CCS)c1nnc2n1CCC2 (stereo not given),31.3
24,CN(C)CCOc1cccc(NC(=O)CCS)c1,55.3

row,SMILES,percent labeling [%]
1,O=C(CCS)Nc1cnn(COc2ccc(Cl)cc2)c1,40.1
2,O=C(CCS)Nc1ccc(NC(=O)c2ccco2)c(Cl)c1,37.3
3,O=C(NCCS)C(c1cccc(F)c1)N1CCOCC1 (stereo not given),39.1
4,CCOc1cccnc1N1CCN(C(=O)CCS)CC1,45.7
5,CC(NC(=O)C12CC3CC(CC(C3)C1)C2)C(=O)NCCS (stereo not given),31.9
6,O=C(CCS)N1CCN(c2nn3cc(-c4ccc(F)cc4)nc3s2)CC1,7.9
7,Cc1nn(C)c(Oc2cccnc2)c1NC(=O)CCS,33.5
8,O=C(NCCS)C1CC(O)(c2cccc(Cl)c2)C1 (stereo not given),47.2
9,Cn1cc(C(=O)NCCS)c(-c2ccc3c(c2)OCCCO3)n1,41.2
10,Cc1cc(Br)cc2cc(C(=O)NCCS)oc12,28.6
11,O=C(Cc1csc(N2CCCC2=O)n1)NCCS,34.3
12,O=C(CCS)N1CCC(c2ncc(-c3ccc(F)c(F)c3)[nH]2)CC1,29.1
13,COc1ccc2nc(C)c(C(=O)NCCS)n2n1,54.1
14,O=C(CCS)Nc1ccc(-c2n[nH]c3c2COCC3)cc1,40.5
15,O=C(NCCS)C1CCN(S(=O)(=O)c2ccc3[nH]c(=O)sc3c2)CC1,22.3
16,O=C(NCCS)c1ccnc2cc(Cl)ccc12,41.3
17,O=C(CCS)N(CC(F)F)C1CCCCC1,32.1
18,CN(C(=O)c1cccc(C(=O)NCCS)c1)c1ccccc1,41
19,O=C(NCCS)C1(c2cc(F)cc(Br)c2)CC1,31.1
20,CN(C)c1ccc2cc(C(=O)NCCS)ccc2c1,18.7
21,CCC(C)c1nc(C)c(CC(=O)NCCS)c(C)n1 (stereo not given),34.7
22,O=C(CCc1nc(-c2ccc(Br)cc2)no1)NCCS,11.6
23,O=C(CCS)NCc1cn(-c2ccccc2)nc1-c1ccc(F)cc1,22
24,O=C(CCS)NC1CCC(c2nc3ccccc3[nH]2)CC1 (stereo not given),41.9

row,SMILES,percent labeling [%]
1,COc1ccccc1C(=O)NCCS,52
2,Cc1cccc(-c2csc(NC(=O)CCS)n2)c1,20.9
3,O=C(CCS)N1CCC(Nc2ccncc2)CC1,58.2
4,O=C(NCCS)c1cc(-c2ccccc2F)no1,23.9
5,O=C(CCS)Nc1ccc(OC2CCCC2)nc1,27.8
6,O=C(CCS)Nc1cn(-c2ccccc2)nn1,34.6
7,O=C(CCS)NCc1cccnc1-n1cccn1,28.7
8,COc1ccc(CN2CCN(C(=O)CCS)CC2)cc1F,49.2
9,CC(C)(Cc1c[nH]c2cc(F)ccc12)NC(=O)CCS,27
10,Cc1cn2cc(CC(=O)NCCS)nc2s1,33.2
11,O=C(CCS)NCC1CN(c2ccccc2)C(=O)O1 (stereo not given),35.2
12,O=C(NC1CCN(C(=O)CCS)CC1)c1ccccc1,44.9
13,Cc1cn(-c2cccnc2)nc1NC(=O)CCS,37.3
14,CCOc1ccccc1-c1cc(C(=O)NCCS)[nH]n1,26.2
15,CCOC(=O)c1nnc(C2CCN(C(=O)CCS)CC2)s1,37.3
16,CC(NC(=O)CCS)C1(n2ccnn2)CC1 (stereo not given),27.3
17,O=C(CCS)N1CC2CCCS(=O)(=O)C2(C(F)(F)F)C1 (stereo not given),33.5
18,Cc1nc(-c2cc(C(=O)NCCS)cs2)cs1,34.5
19,O=C(NCCS)c1ccc(-c2ccc3c(c2)OCCO3)s1,21.7
20,O=C(NCCS)c1cc(-c2cccc(C(F)(F)F)c2)ccn1,26.3
21,O=C(NCCS)c1cnc(Oc2ccccc2)cn1,20.7
22,CC(C)N(Cc1cccs1)C(=O)CCS,36.7
23,O=C(NCCS)c1sc(-c2ccccc2)nc1C(F)F,30.2
24,Cc1oc(-c2ccccc2)nc1CC(=O)NCCS,29.7

row,SMILES,percent labeling [%]
1,O=C(CN1CC(C(F)(F)F)CCC1=O)NCCS (stereo not given),35.8
2,CC1(C2CC2)NC(=O)N(c2cccc(NC(=O)CCS)c2)C1=O (stereo not given),42.4
3,CN(C)C(=O)CCn1ccc(NC(=O)CCS)n1,29.1
4,Cc1nc(C(=O)NCCS)c(C)o1,32.3
5,CN(C)Cc1nc(C2(NC(=O)CCS)CCCC2)no1,28.9
6,O=C(NCCS)c1cccc(CN2C(=O)CNC2=O)c1,47.6
7,COC(=O)[C@@H]1C[C@H](N2C(=O)CNC2=O)CN1C(=O)CCS,36.2
8,O=C(CCS)N1CCCN2c3ccccc3CC2C1 (stereo not given),23.6
9,COc1ccc(C(=O)NCCS)cc1-c1ccnn1C,42.6
10,COc1cnc(C2CCCN2C(=O)CCS)[nH]c1=O (stereo not given),29.6
11,O=C(CCS)NCc1ccn(-c2cccc(Cl)c2)n1,31.7
12,CCc1ccc(C(=O)Nc2sccc2C(=O)NCCS)cc1,21.1
13,O=C(NCCS)[C@@H]1CCCO[C@H]1c1ncc[nH]1,26.1
14,O=C(CCC(=O)N1CCN(c2ncccn2)CC1)NCCS,28.7
15,O=C(Cc1ccc(C(F)(F)F)nc1)NCCS,26.9
16,Cc1nc2ccnn2c(C)c1CCC(=O)NCCS,30.2
17,CN1C(=O)c2ccccc2Sc2ccc(NC(=O)CCS)cc21,33.9
18,O=C(NCCS)c1csc(-c2ccc(Cl)cc2)c1,17.5
19,O=C(CCS)NCCn1ncc2ccccc2c1=O,39.3
20,CN(C)c1noc(C2CN(C(=O)CCS)C2)n1,32.2

# Source: PubChem BioAssay AID2202238 (Ras Initiative Chemistry Research Team, Frederick National …, 2025)
